# Source: paper PMC12820563, “FoxP3 forms a head-to-head dimer in vivo and stabilizes its multimerization on adjacent microsatellites”
# The other results are listed elsewhere or left out.
# Target: T1, MBP-FoxP1dN (Mus musculus, UniProt P58462 326-579)
# T1 sequence: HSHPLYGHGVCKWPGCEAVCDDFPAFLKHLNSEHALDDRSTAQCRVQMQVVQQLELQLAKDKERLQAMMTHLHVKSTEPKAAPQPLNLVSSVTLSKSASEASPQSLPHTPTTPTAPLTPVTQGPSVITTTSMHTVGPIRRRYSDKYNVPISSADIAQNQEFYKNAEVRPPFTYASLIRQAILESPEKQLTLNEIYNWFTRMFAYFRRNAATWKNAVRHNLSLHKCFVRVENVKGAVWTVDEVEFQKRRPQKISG
# Experiment: PD-seq (MBP pull-down with sequencing); 20 mM Tris-HCl pH 7.5, 100 mM NaCl, 1.5 mM MgCl2, 0.4 uM protein, 0.1 uM dsDNA library, 30 min, room temperature, amylose pull-down; high values mean tight binding
# Settings: protein: recombinant; tags: His6-MBP; chain copies: 2; dsDNA, one strand shown
# In short: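 Mouse FoxP3 or FoxP1 fragment lacking the N-terminus, His6-MBP-tagged and expressed in E. coli, was incubated at 0.4 µM with 0.1 µM Klenow-filled degenerate double-stranded DNA library for 30 min at room temperature in Tris pH 7.5 buffer with NaCl and MgCl2. Complexes captured on amylose resin were washed three times and their DNA sequenced on Illumina. Binding is reads-per-million enrichment of pull-down over input, replicates pooled.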
row,Sequence,binding signal
1,GATGATTGTTCTCCCAGCTGATGAATTTACCCCATCGAGTAAACAAATTTTCCTAATCTTTCTGTTCAAGCGCCATCTAC,1.19 RPM ratio (pull-down/input)
2,GATGATTGTTCTCCCAGCTGATGAATTAAAGTGTTCGAGTAAACAAATTTTCCTAATCTTTCTGTTCAAGCGCCATCTAC,1.05 RPM ratio (pull-down/input)
3,GATGATTGTTCTCCCAGCTGATGAATTAGTCGTGTCGAGTAAACAAATTTTCCTAATCTTTCTGTTCAAGCGCCATCTAC,0.885 RPM ratio (pull-down/input)
4,GATGATTGTTCTCCCAGCTGATGAATTGGATGTTTCGAGTAAACAAATTTTCCTAATCTTTCTGTTCAAGCGCCATCTAC,1.08 RPM ratio (pull-down/input)
5,GATGATTGTTCTCCCAGCTGATGAATTCGTCGGCTCGAGTAAACAAATTTTCCTAATCTTTCTGTTCAAGCGCCATCTAC,0.772 RPM ratio (pull-down/input)
6,GATGATTGTTCTCCCAGCTGATGAATTAGAGGCTTCGAGTAAACAAATTTTCCTAATCTTTCTGTTCAAGCGCCATCTAC,0.965 RPM ratio (pull-down/input)
7,GATGATTGTTCTCCCAGCTGATGAATTATACGCATCGAGTAAACAAATTTTCCTAATCTTTCTGTTCAAGCGCCATCTAC,1.21 RPM ratio (pull-down/input)
8,GATGATTGTTCTCCCAGCTGATGAATTTTTATCGTCGAGTAAACAAATTTTCCTAATCTTTCTGTTCAAGCGCCATCTAC,1.14 RPM ratio (pull-down/input)
9,GATGATTGTTCTCCCAGCTGATGAATTACTTTCGTCGAGTAAACAAATTTTCCTAATCTTTCTGTTCAAGCGCCATCTAC,0.988 RPM ratio (pull-down/input)
10,GATGATTGTTCTCCCAGCTGATGAATTAGGGACCTCGAGTAAACAAATTTTCCTAATCTTTCTGTTCAAGCGCCATCTAC,0.777 RPM ratio (pull-down/input)
11,GATGATTGTTCTCCCAGCTGATGAATTATCAGACTCGAGTAAACAAATTTTCCTAATCTTTCTGTTCAAGCGCCATCTAC,0.844 RPM ratio (pull-down/input)
12,GATGATTGTTCTCCCAGCTGATGAATTACGGGAATCGAGTAAACAAATTTTCCTAATCTTTCTGTTCAAGCGCCATCTAC,1.04 RPM ratio (pull-down/input)
13,GATGATTGTTCTCCCAGCTGATGAATTCCCGCTGTCGAGTAAACAAATTTTCCTAATCTTTCTGTTCAAGCGCCATCTAC,0.872 RPM ratio (pull-down/input)
14,GATGATTGTTCTCCCAGCTGATGAATTCCTGGCTTCGAGTAAACAAATTTTCCTAATCTTTCTGTTCAAGCGCCATCTAC,0.73 RPM ratio (pull-down/input)
15,GATGATTGTTCTCCCAGCTGATGAATTTTTTGTCTCGAGTAAACAAATTTTCCTAATCTTTCTGTTCAAGCGCCATCTAC,0.905 RPM ratio (pull-down/input)
16,GATGATTGTTCTCCCAGCTGATGAATTACAGTCTTCGAGTAAACAAATTTTCCTAATCTTTCTGTTCAAGCGCCATCTAC,1.12 RPM ratio (pull-down/input)
17,GATGATTGTTCTCCCAGCTGATGAATTTAGGTCCTCGAGTAAACAAATTTTCCTAATCTTTCTGTTCAAGCGCCATCTAC,0.858 RPM ratio (pull-down/input)
18,GATGATTGTTCTCCCAGCTGATGAATTCGGAGGCTCGAGTAAACAAATTTTCCTAATCTTTCTGTTCAAGCGCCATCTAC,0.802 RPM ratio (pull-down/input)
19,GATGATTGTTCTCCCAGCTGATGAATTAGTATTGTCGAGTAAACAAATTTTCCTAATCTTTCTGTTCAAGCGCCATCTAC,2.55 RPM ratio (pull-down/input)
20,GATGATTGTTCTCCCAGCTGATGAATTCTGCTAATCGAGTAAACAAATTTTCCTAATCTTTCTGTTCAAGCGCCATCTAC,0.985 RPM ratio (pull-down/input)
21,GATGATTGTTCTCCCAGCTGATGAATTCCATTTTTCGAGTAAACAAATTTTCCTAATCTTTCTGTTCAAGCGCCATCTAC,0.853 RPM ratio (pull-down/input)

row,Sequence,binding signal
1,GATGATTGTTCTCCCAGCTGATGAATTGATAAGTTCGAGTAAACAAATTTTCCTAATCTTTCTGTTCAAGCGCCATCTAC,1.11 RPM ratio (pull-down/input)
2,GATGATTGTTCTCCCAGCTGATGAATTTCCCCCGTCGAGTAAACAAATTTTCCTAATCTTTCTGTTCAAGCGCCATCTAC,0.786 RPM ratio (pull-down/input)
3,GATGATTGTTCTCCCAGCTGATGAATTAGTCGACTCGAGTAAACAAATTTTCCTAATCTTTCTGTTCAAGCGCCATCTAC,0.912 RPM ratio (pull-down/input)
4,GATGATTGTTCTCCCAGCTGATGAATTGGCTAGCTCGAGTAAACAAATTTTCCTAATCTTTCTGTTCAAGCGCCATCTAC,0.808 RPM ratio (pull-down/input)
5,GATGATTGTTCTCCCAGCTGATGAATTAGACTGGTCGAGTAAACAAATTTTCCTAATCTTTCTGTTCAAGCGCCATCTAC,0.848 RPM ratio (pull-down/input)
6,GATGATTGTTCTCCCAGCTGATGAATTGAGGGAATCGAGTAAACAAATTTTCCTAATCTTTCTGTTCAAGCGCCATCTAC,0.883 RPM ratio (pull-down/input)
7,GATGATTGTTCTCCCAGCTGATGAATTATGCGATTCGAGTAAACAAATTTTCCTAATCTTTCTGTTCAAGCGCCATCTAC,1.06 RPM ratio (pull-down/input)
8,GATGATTGTTCTCCCAGCTGATGAATTAAAAGATTCGAGTAAACAAATTTTCCTAATCTTTCTGTTCAAGCGCCATCTAC,0.939 RPM ratio (pull-down/input)
9,GATGATTGTTCTCCCAGCTGATGAATTAGCGGTGTCGAGTAAACAAATTTTCCTAATCTTTCTGTTCAAGCGCCATCTAC,0.861 RPM ratio (pull-down/input)
10,GATGATTGTTCTCCCAGCTGATGAATTTGTCCGCTCGAGTAAACAAATTTTCCTAATCTTTCTGTTCAAGCGCCATCTAC,0.946 RPM ratio (pull-down/input)
11,GATGATTGTTCTCCCAGCTGATGAATTGAACGTATCGAGTAAACAAATTTTCCTAATCTTTCTGTTCAAGCGCCATCTAC,0.969 RPM ratio (pull-down/input)
12,GATGATTGTTCTCCCAGCTGATGAATTATTAATATCGAGTAAACAAATTTTCCTAATCTTTCTGTTCAAGCGCCATCTAC,1.39 RPM ratio (pull-down/input)
13,GATGATTGTTCTCCCAGCTGATGAATTCGGGCCTTCGAGTAAACAAATTTTCCTAATCTTTCTGTTCAAGCGCCATCTAC,0.807 RPM ratio (pull-down/input)
14,GATGATTGTTCTCCCAGCTGATGAATTTAATAGATCGAGTAAACAAATTTTCCTAATCTTTCTGTTCAAGCGCCATCTAC,0.916 RPM ratio (pull-down/input)
15,GATGATTGTTCTCCCAGCTGATGAATTTCTGCTCTCGAGTAAACAAATTTTCCTAATCTTTCTGTTCAAGCGCCATCTAC,0.769 RPM ratio (pull-down/input)
16,GATGATTGTTCTCCCAGCTGATGAATTGACGGTCTCGAGTAAACAAATTTTCCTAATCTTTCTGTTCAAGCGCCATCTAC,0.969 RPM ratio (pull-down/input)
17,GATGATTGTTCTCCCAGCTGATGAATTATTGGGGTCGAGTAAACAAATTTTCCTAATCTTTCTGTTCAAGCGCCATCTAC,1.1 RPM ratio (pull-down/input)
18,GATGATTGTTCTCCCAGCTGATGAATTACAGAGCTCGAGTAAACAAATTTTCCTAATCTTTCTGTTCAAGCGCCATCTAC,0.895 RPM ratio (pull-down/input)
19,GATGATTGTTCTCCCAGCTGATGAATTAATTTAGTCGAGTAAACAAATTTTCCTAATCTTTCTGTTCAAGCGCCATCTAC,1.02 RPM ratio (pull-down/input)
20,GATGATTGTTCTCCCAGCTGATGAATTATGTTCGTCGAGTAAACAAATTTTCCTAATCTTTCTGTTCAAGCGCCATCTAC,1.06 RPM ratio (pull-down/input)
21,GATGATTGTTCTCCCAGCTGATGAATTACCAGATTCGAGTAAACAAATTTTCCTAATCTTTCTGTTCAAGCGCCATCTAC,1.09 RPM ratio (pull-down/input)

row,Sequence,binding signal
1,GATGATTGTTCTCCCAGCTGATGAATTGCAAAAGTCGAGTAAACAAATTTTCCTAATCTTTCTGTTCAAGCGCCATCTAC,1.27 RPM ratio (pull-down/input)
2,GATGATTGTTCTCCCAGCTGATGAATTTGCGGCCTCGAGTAAACAAATTTTCCTAATCTTTCTGTTCAAGCGCCATCTAC,0.854 RPM ratio (pull-down/input)
3,GATGATTGTTCTCCCAGCTGATGAATTAGGATTTTCGAGTAAACAAATTTTCCTAATCTTTCTGTTCAAGCGCCATCTAC,0.944 RPM ratio (pull-down/input)
4,GATGATTGTTCTCCCAGCTGATGAATTATGGAACTCGAGTAAACAAATTTTCCTAATCTTTCTGTTCAAGCGCCATCTAC,0.879 RPM ratio (pull-down/input)
5,GATGATTGTTCTCCCAGCTGATGAATTACCGTAATCGAGTAAACAAATTTTCCTAATCTTTCTGTTCAAGCGCCATCTAC,1.48 RPM ratio (pull-down/input)
6,GATGATTGTTCTCCCAGCTGATGAATTTTTACTATCGAGTAAACAAATTTTCCTAATCTTTCTGTTCAAGCGCCATCTAC,1.1 RPM ratio (pull-down/input)
7,GATGATTGTTCTCCCAGCTGATGAATTACATAAGTCGAGTAAACAAATTTTCCTAATCTTTCTGTTCAAGCGCCATCTAC,1.23 RPM ratio (pull-down/input)
8,GATGATTGTTCTCCCAGCTGATGAATTAGTCCAGTCGAGTAAACAAATTTTCCTAATCTTTCTGTTCAAGCGCCATCTAC,0.824 RPM ratio (pull-down/input)
9,GATGATTGTTCTCCCAGCTGATGAATTGCGCTTCTCGAGTAAACAAATTTTCCTAATCTTTCTGTTCAAGCGCCATCTAC,0.999 RPM ratio (pull-down/input)
10,GATGATTGTTCTCCCAGCTGATGAATTCCCTCCGTCGAGTAAACAAATTTTCCTAATCTTTCTGTTCAAGCGCCATCTAC,0.836 RPM ratio (pull-down/input)
11,GATGATTGTTCTCCCAGCTGATGAATTGCCTTTATCGAGTAAACAAATTTTCCTAATCTTTCTGTTCAAGCGCCATCTAC,1.12 RPM ratio (pull-down/input)
12,GATGATTGTTCTCCCAGCTGATGAATTTCAGTGCTCGAGTAAACAAATTTTCCTAATCTTTCTGTTCAAGCGCCATCTAC,0.817 RPM ratio (pull-down/input)
13,GATGATTGTTCTCCCAGCTGATGAATTACGAATCTCGAGTAAACAAATTTTCCTAATCTTTCTGTTCAAGCGCCATCTAC,1.03 RPM ratio (pull-down/input)
14,GATGATTGTTCTCCCAGCTGATGAATTTCTAGCTTCGAGTAAACAAATTTTCCTAATCTTTCTGTTCAAGCGCCATCTAC,0.913 RPM ratio (pull-down/input)
15,GATGATTGTTCTCCCAGCTGATGAATTCGGAGGATCGAGTAAACAAATTTTCCTAATCTTTCTGTTCAAGCGCCATCTAC,0.831 RPM ratio (pull-down/input)
16,GATGATTGTTCTCCCAGCTGATGAATTAAAAGCCTCGAGTAAACAAATTTTCCTAATCTTTCTGTTCAAGCGCCATCTAC,0.944 RPM ratio (pull-down/input)
17,GATGATTGTTCTCCCAGCTGATGAATTTTTCTATTCGAGTAAACAAATTTTCCTAATCTTTCTGTTCAAGCGCCATCTAC,0.984 RPM ratio (pull-down/input)
18,GATGATTGTTCTCCCAGCTGATGAATTAAATATCTCGAGTAAACAAATTTTCCTAATCTTTCTGTTCAAGCGCCATCTAC,1.01 RPM ratio (pull-down/input)
19,GATGATTGTTCTCCCAGCTGATGAATTAATAACCTCGAGTAAACAAATTTTCCTAATCTTTCTGTTCAAGCGCCATCTAC,1 RPM ratio (pull-down/input)
20,GATGATTGTTCTCCCAGCTGATGAATTGGCATTTTCGAGTAAACAAATTTTCCTAATCTTTCTGTTCAAGCGCCATCTAC,1.13 RPM ratio (pull-down/input)
21,GATGATTGTTCTCCCAGCTGATGAATTCTGTTACTCGAGTAAACAAATTTTCCTAATCTTTCTGTTCAAGCGCCATCTAC,1.1 RPM ratio (pull-down/input)
